{
  "source": "a collection of fitness landscapes (doi:10.1016/j.celrep.2020.107928)",
  "parents": {"B1": {"name": "Caulobacter ParB omega fusion; a variant is named by its letters at X, in order, B8GW30 (parent)", "chain": "MESVVVGEPGMSEGRRGLGRGLSALLGEVDAAPAQAPGEQLGGSREAPIEILQRNPDQPRRTFREEDLEDLSNSIREKGVLQPILVRPSPDTAGEYQIVAGERAWRAAQRAGLKTVPIMVRELDDLAVLEIGIIENVQRADLNVLEEALSYKVLMEKFERTQENIAQTIGKSXSHVANXMRLLXLPDEVQSYLVSGELTAXHARAIAAAADPVALAKQIIEGGLSVRETEALARKAPNLSAGKSKGGRPPRVKDTDTQALESDLSSVLGLDVSIDHRGSTGTLTITYATLEQLDDLCNRLTRGI"}},
  "note": "Over roughly 81,000 sequences, “one-hybrid fitness for binding parS DNA” has its median near -0.17; the highest 2% begin near 0.51. The list shows a part of the results.",
  "data": [
    {"variants_of": "B1", "assay": "one-hybrid fitness for binding parS DNA (scaled: cognate 1, non-cognate 0); higher = stronger binding", "conditions": "with parS DNA site", "outline": "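The reporter was HIS3, with the binding site 19 bp from the promoter, in E. coli USO used for bacterial one-hybrid selection of Caulobacter ParB libraries with four specificity codons randomised. Growth was on M9 lacking histidine, with 0.1 mM IPTG and 5 mM 3-AT, for 48 hours at 37°C. Illumina sequencing covered plasmids before and after selection; three replicate libraries were pooled and variants with under 10 reads dropped. A fitness score is the log change in variant-to-wild-type read ratio, rescaled to the cognate and non-cognate references.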", "values": [
      {"variant": "GIYS", "one-hybrid fitness for binding parS DNA": "≤ 0.2"},
      {"variant": "ITSN", "one-hybrid fitness for binding parS DNA": "≤ 0.2"},
      {"variant": "QSWF", "one-hybrid fitness for binding parS DNA": "≤ 0.2"},
      {"variant": "HIKI", "one-hybrid fitness for binding parS DNA": "≤ 0.2"},
      {"variant": "ANNT", "one-hybrid fitness for binding parS DNA": "≤ 0.2"},
      {"variant": "PQYD", "one-hybrid fitness for binding parS DNA": "≤ 0.2"},
      {"variant": "QSGS", "one-hybrid fitness for binding parS DNA": "≤ 0.2"},
      {"variant": "LAIW", "one-hybrid fitness for binding parS DNA": "≤ 0.2"},
      {"variant": "NYNV", "one-hybrid fitness for binding parS DNA": "≤ 0.2"},
      {"variant": "QRDF", "one-hybrid fitness for binding parS DNA": "≤ 0.2"},
      {"variant": "GSQR", "one-hybrid fitness for binding parS DNA": "≤ 0.2"},
      {"variant": "CGRG", "one-hybrid fitness for binding parS DNA": "≤ 0.2"},
      {"variant": "HKPS", "one-hybrid fitness for binding parS DNA": "≤ 0.2"},
      {"variant": "RLSP", "one-hybrid fitness for binding parS DNA": "≤ 0.2"},
      {"variant": "ASVV", "one-hybrid fitness for binding parS DNA": "≤ 0.2"},
      {"variant": "WFWG", "one-hybrid fitness for binding parS DNA": "≤ 0.2"},
      {"variant": "SNSR", "one-hybrid fitness for binding parS DNA": "≤ 0.2"},
      {"variant": "PWWC", "one-hybrid fitness for binding parS DNA": "≤ 0.2"},
      {"variant": "QIHG", "one-hybrid fitness for binding parS DNA": "≤ 0.2"},
      {"variant": "MQSA", "one-hybrid fitness for binding parS DNA": "≤ 0.2"},
      {"variant": "RFRQ", "one-hybrid fitness for binding parS DNA": "≤ 0.2"},
      {"variant": "KTGS", "one-hybrid fitness for binding parS DNA": "≤ 0.2"},
      {"variant": "RWWF", "one-hybrid fitness for binding parS DNA": "≤ 0.2"},
      {"variant": "RFIC", "one-hybrid fitness for binding parS DNA": 0.657},
      {"variant": "YTDE", "one-hybrid fitness for binding parS DNA": "≤ 0.2"},
      {"variant": "PDVA", "one-hybrid fitness for binding parS DNA": "≤ 0.2"},
      {"variant": "VRIS", "one-hybrid fitness for binding parS DNA": "≤ 0.2"},
      {"variant": "RHDS", "one-hybrid fitness for binding parS DNA": 0.967},
      {"variant": "TWER", "one-hybrid fitness for binding parS DNA": "≤ 0.2"},
      {"variant": "GEDT", "one-hybrid fitness for binding parS DNA": "≤ 0.2"},
      {"variant": "HGPE", "one-hybrid fitness for binding parS DNA": "≤ 0.2"},
      {"variant": "NYYT", "one-hybrid fitness for binding parS DNA": "≤ 0.2"},
      {"variant": "SDSK", "one-hybrid fitness for binding parS DNA": "≤ 0.2"},
      {"variant": "VYPM", "one-hybrid fitness for binding parS DNA": "≤ 0.2"},
      {"variant": "SAME", "one-hybrid fitness for binding parS DNA": "≤ 0.2"},
      {"variant": "HDSE", "one-hybrid fitness for binding parS DNA": "≤ 0.2"},
      {"variant": "YAAP", "one-hybrid fitness for binding parS DNA": "≤ 0.2"},
      {"variant": "QSQP", "one-hybrid fitness for binding parS DNA": "≤ 0.2"},
      {"variant": "RKSE", "one-hybrid fitness for binding parS DNA": "≤ 0.2"},
      {"variant": "NSAK", "one-hybrid fitness for binding parS DNA": "≤ 0.2"},
      {"variant": "TAWA", "one-hybrid fitness for binding parS DNA": "≤ 0.2"},
      {"variant": "WSYR", "one-hybrid fitness for binding parS DNA": "≤ 0.2"},
      {"variant": "QMQC", "one-hybrid fitness for binding parS DNA": "≤ 0.2"},
      {"variant": "HLRA", "one-hybrid fitness for binding parS DNA": "≤ 0.2"},
      {"variant": "YTVY", "one-hybrid fitness for binding parS DNA": "≤ 0.2"},
      {"variant": "CFYG", "one-hybrid fitness for binding parS DNA": "≤ 0.2"},
      {"variant": "EYIG", "one-hybrid fitness for binding parS DNA": "≤ 0.2"},
      {"variant": "GMES", "one-hybrid fitness for binding parS DNA": "≤ 0.2"},
      {"variant": "AVAR", "one-hybrid fitness for binding parS DNA": "≤ 0.2"},
      {"variant": "NRYK", "one-hybrid fitness for binding parS DNA": "≤ 0.2"},
      {"variant": "VSSS", "one-hybrid fitness for binding parS DNA": "≤ 0.2"},
      {"variant": "ILQF", "one-hybrid fitness for binding parS DNA": "≤ 0.2"},
      {"variant": "TGET", "one-hybrid fitness for binding parS DNA": "≤ 0.2"},
      {"variant": "RQST", "one-hybrid fitness for binding parS DNA": 0.916},
      {"variant": "YADR", "one-hybrid fitness for binding parS DNA": "≤ 0.2"},
      {"variant": "GVGV", "one-hybrid fitness for binding parS DNA": "≤ 0.2"},
      {"variant": "SYGK", "one-hybrid fitness for binding parS DNA": "≤ 0.2"},
      {"variant": "KDMM", "one-hybrid fitness for binding parS DNA": "≤ 0.2"},
      {"variant": "LMTM", "one-hybrid fitness for binding parS DNA": "≤ 0.2"},
      {"variant": "GTDD", "one-hybrid fitness for binding parS DNA": "≤ 0.2"},
      {"variant": "CTTY", "one-hybrid fitness for binding parS DNA": "≤ 0.2"},
      {"variant": "GQWY", "one-hybrid fitness for binding parS DNA": "≤ 0.2"},
      {"variant": "WSVG", "one-hybrid fitness for binding parS DNA": "≤ 0.2"},
      {"variant": "EMMI", "one-hybrid fitness for binding parS DNA": "≤ 0.2"},
      {"variant": "HYES", "one-hybrid fitness for binding parS DNA": "≤ 0.2"},
      {"variant": "ENQT", "one-hybrid fitness for binding parS DNA": "≤ 0.2"},
      {"variant": "TISM", "one-hybrid fitness for binding parS DNA": "≤ 0.2"},
      {"variant": "QRRC", "one-hybrid fitness for binding parS DNA": "≤ 0.2"},
      {"variant": "LMDR", "one-hybrid fitness for binding parS DNA": "≤ 0.2"},
      {"variant": "YKFS", "one-hybrid fitness for binding parS DNA": "≤ 0.2"},
      {"variant": "PHRL", "one-hybrid fitness for binding parS DNA": "≤ 0.2"},
      {"variant": "GRHC", "one-hybrid fitness for binding parS DNA": "≤ 0.2"},
      {"variant": "CWDS", "one-hybrid fitness for binding parS DNA": "≤ 0.2"},
      {"variant": "VQSA", "one-hybrid fitness for binding parS DNA": "≤ 0.2"},
      {"variant": "QTEH", "one-hybrid fitness for binding parS DNA": "≤ 0.2"},
      {"variant": "ALHY", "one-hybrid fitness for binding parS DNA": "≤ 0.2"},
      {"variant": "AIPR", "one-hybrid fitness for binding parS DNA": "≤ 0.2"},
      {"variant": "WSAG", "one-hybrid fitness for binding parS DNA": "≤ 0.2"},
      {"variant": "ISTH", "one-hybrid fitness for binding parS DNA": "≤ 0.2"},
      {"variant": "FLAS", "one-hybrid fitness for binding parS DNA": "≤ 0.2"},
      {"variant": "STRL", "one-hybrid fitness for binding parS DNA": "≤ 0.2"},
      {"variant": "VIRS", "one-hybrid fitness for binding parS DNA": "≤ 0.2"},
      {"variant": "KHAA", "one-hybrid fitness for binding parS DNA": "≤ 0.2"},
      {"variant": "QDSR", "one-hybrid fitness for binding parS DNA": "≤ 0.2"}
    ]}
  ]
}
